Measured values taken from paper PMC9630114.
No constants are given. Whether binding was seen depends on the method and setting. Binding seen in cells or lysates may run through a third protein. Some binding calls cover weakened binding; strength is not graded here. Where a sequence is shown, tags or fusion partners need not be part of it.

By UniProt entry, the sequences of proteins in these tests, tags left out. Residues count along the entry.
UniProt Q9BVK8: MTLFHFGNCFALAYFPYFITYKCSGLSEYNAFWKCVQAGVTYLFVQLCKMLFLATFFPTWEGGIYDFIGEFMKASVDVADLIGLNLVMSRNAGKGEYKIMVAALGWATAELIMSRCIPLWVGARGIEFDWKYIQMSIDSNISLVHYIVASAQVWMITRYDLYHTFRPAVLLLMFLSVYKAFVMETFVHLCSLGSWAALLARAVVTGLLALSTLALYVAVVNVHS
UniProt Q9BUV8: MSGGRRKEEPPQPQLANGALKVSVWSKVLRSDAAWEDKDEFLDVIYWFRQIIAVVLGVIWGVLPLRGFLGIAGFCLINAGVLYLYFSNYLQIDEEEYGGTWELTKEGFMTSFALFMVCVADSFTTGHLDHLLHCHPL
UniProt Q969V3, residues 43-563: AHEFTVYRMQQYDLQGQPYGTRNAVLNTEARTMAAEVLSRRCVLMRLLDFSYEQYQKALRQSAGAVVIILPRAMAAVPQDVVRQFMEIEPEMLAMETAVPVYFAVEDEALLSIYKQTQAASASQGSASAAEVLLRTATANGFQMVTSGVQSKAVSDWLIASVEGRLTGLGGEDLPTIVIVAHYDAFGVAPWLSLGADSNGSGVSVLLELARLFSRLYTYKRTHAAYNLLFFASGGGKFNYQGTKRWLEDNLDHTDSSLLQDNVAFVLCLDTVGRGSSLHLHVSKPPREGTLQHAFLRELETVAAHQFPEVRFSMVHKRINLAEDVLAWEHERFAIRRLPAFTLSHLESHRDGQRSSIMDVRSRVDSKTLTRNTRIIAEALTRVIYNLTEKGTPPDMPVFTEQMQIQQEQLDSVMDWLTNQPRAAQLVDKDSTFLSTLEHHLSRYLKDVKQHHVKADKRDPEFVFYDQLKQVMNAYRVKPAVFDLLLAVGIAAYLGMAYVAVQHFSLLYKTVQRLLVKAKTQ

Tests used:
[1] = biological target: T1, stalled, Flag-tagged YIPF1 construct truncated at position 183 (UniProt Q9Y548); assay: co-IP; stalled N-terminally Flag-tagged nascent chains translated in RRL with HEK293 rough microsomes (wild type; in some panels ΔTN, ΔTC, ΔS or single knockouts), membranes nuclease-treated and digitonin-solubilized, anti-Flag immunoprecipitation, Flag-peptide elution, ribosome-nascent chain complexes pelleted through a sucrose cushion; immunoblot
T1 sequence: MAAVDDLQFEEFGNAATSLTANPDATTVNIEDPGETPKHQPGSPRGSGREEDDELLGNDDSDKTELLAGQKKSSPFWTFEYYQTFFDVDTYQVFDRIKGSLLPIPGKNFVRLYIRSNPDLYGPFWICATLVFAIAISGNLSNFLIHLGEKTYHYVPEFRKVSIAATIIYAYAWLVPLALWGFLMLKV

[2] = biological target: T2, stalled, Flag-tagged YIPF1 construct truncated at position 277 (UniProt Q9Y548); assay: as above
T2 sequence: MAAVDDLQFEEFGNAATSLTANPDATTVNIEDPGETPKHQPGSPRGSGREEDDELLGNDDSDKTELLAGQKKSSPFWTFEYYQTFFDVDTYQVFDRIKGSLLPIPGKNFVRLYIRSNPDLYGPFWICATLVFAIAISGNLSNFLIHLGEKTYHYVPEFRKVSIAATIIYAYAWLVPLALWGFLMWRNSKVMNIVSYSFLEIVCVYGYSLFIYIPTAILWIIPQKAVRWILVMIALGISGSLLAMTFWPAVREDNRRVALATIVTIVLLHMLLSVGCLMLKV

[3] = biological target: T3, N-terminally Flag-tagged CCDC47 (UniProt Q96A33); assay: co-IP; anti-Flag (M2 beads) immunoprecipitation from nuclease-treated, digitonin-solubilized HEK293 microsomes, overnight at 4 °C, Flag-peptide elution, eluate pelleted through a sucrose cushion; ribosome-bound fraction (pellet); immunoblot
T3 sequence: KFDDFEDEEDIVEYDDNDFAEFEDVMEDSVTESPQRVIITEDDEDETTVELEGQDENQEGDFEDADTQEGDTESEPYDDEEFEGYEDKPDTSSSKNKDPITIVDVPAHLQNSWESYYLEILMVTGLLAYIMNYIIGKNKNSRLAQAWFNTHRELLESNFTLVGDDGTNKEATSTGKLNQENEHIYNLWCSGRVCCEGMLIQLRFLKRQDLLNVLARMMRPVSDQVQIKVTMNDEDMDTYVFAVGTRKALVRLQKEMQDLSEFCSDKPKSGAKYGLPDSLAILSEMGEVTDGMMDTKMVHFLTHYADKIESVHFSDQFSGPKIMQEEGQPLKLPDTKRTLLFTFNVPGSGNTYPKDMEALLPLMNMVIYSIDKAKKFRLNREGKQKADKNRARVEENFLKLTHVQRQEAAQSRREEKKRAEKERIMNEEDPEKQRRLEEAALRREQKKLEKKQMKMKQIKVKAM

Question: Which binding [1] does the source give for TMEM147 (from UniProt Q9BVK8 1-224) here?
Answer: Its binding is “no binding”.

Question: What about the binding [2] of the same molecule?
Answer: The binding was “binds”.

Question: What does the source list for C20Orf24 (from UniProt Q9BUV8 1-137)?
Answer: binding [1]: no binding; binding [2]: binds

Question: nicalin (from UniProt Q969V3 43-563) was tested. Which binding [1] did it give?
Answer: The binding was “no binding”.

Question: And the binding [2]?
Answer: The binding was “binds”.

B1: Asterix (protein, UniProt Q9Y284 1-106)
chain: MSTNNMSDPRRPNKVLRYKPPPSECNPALDDPTPDYMNLLGMIFSMCGLMLKLKWCAWVAVYCSFISFANSRSSEDTKQMMSSFMLSISAVVMSYLQNPQPMTPPW
Question: How did the binding [3] turn out when B1 was run?
Answer: Its binding is “binds”.

Question: And the binding [1]?
Answer: The binding was “no binding”.

Question: And the binding [2]?
Answer: Its binding is “binds”.
